# Among all 310,000 compounds or so, about 11,000 (3.5%) were called active. The shares of active, inactive and inconclusive entries below differ from those in the screen. Calls follow the shape of the dose curve; as a rule, active = well fitted inhibition curve with a large enough effect; inconclusive = small, poorly fitted or top-dose-only effect, or effect the other way; inactive = flat fitted curve, though single readings scatter. No potency is given beside an inconclusive call; the fits are too rough.
# Experiment: VP16 counterscreen qHTS for inhibitors of ROR gamma transcriptional activity;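 also: Gal4-VP16 expression switched on by copper sulfate through the metallothionein promoter; nearly all actives have a fitted effect of over 50% in size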
# Conditions: Drosophila S2 Gal4-VP16 UAS-luciferase, luminescence, 20 h; series mostly up to 53.6 µM
# Potency is read from the fitted curve at half-maximal effect; tags tell the direction and shape of the fitted curve.
row,SMILES,Potency
1,COc1cccc([C@@H]2Oc3ccc(Br)cc3C(=O)[C@H]2OC(=O)Nc2ccc(C)c(Br)c2)c1,inactive
2,CC1CCN(c2ccc(-c3ccc(NC(=O)C(F)(F)F)cc3)nn2)CC1,inactive
3,CCOC(=O)C1=C(c2cccc(F)c2)NC(=S)NC1C (stereo unspecified),"inconclusive [inhibitor, single point]"
4,C/C(=N\NC(=S)NCc1ccccc1)c1ccc2c(c1)OCCO2,active: 8.91 µM
5,CNc1nc(-c2ccc(N(C)C)cc2)nc2ccccc12,"inconclusive [inhibitor, single point]"
6,COc1ccc(C2=CC(=O)C=CC2=O)cc1,"inconclusive [inhibitor, single point]"
7,N#C/C(=C\c1cc2c(cc1Br)OCO2)C(=O)NCC1CCCO1 (stereo unspecified),"inconclusive [inhibitor, single point]"
8,Cc1ccc2c(CN(C)Cc3ccccc3)cc(=O)oc2c1C,inactive
9,CCNC(=S)Nc1cccc(Cl)c1C,active: 17.8 µM
10,COc1ccc(-c2nc(-c3cccs3)no2)cc1,"inconclusive [inhibitor, partial curve]"
11,CC(C)c1ccc(NC(=S)N2CCCC2)cc1,"inconclusive [inhibitor, single point]"
12,COc1ccc(-c2nnc(NC(=O)C(C)C)o2)cc1,"inconclusive [inhibitor, single point]"
13,CCCc1cc(-c2n[nH]c(C(=O)OCC)c2-c2cscn2)c(O)cc1O,"inconclusive [inhibitor, single point]"
14,COc1cccc2c1C(CO)N1C(C#N)C3CC(C(=O)O)C(C1C2)N3C (stereo unspecified),active: 10 µM
15,CCOC(=O)c1ccc(N2C(=O)C(CC(=O)NC)N(CCc3ccc(OC)c(OC)c3)C2=S)cc1 (stereo unspecified),"inconclusive [inhibitor, single point]"
16,CCOc1ccc(-c2ccc(SC)nn2)cc1,"inconclusive [inhibitor, partial curve, poor fit]"
17,CC(=O)Nc1ccc(/C=C2\CCc3ccccc3C2=O)cc1,"inconclusive [inhibitor, single point]"
18,O=C(COC(=O)c1ccccc1O)NCCC1=CCCCC1,inactive
19,Cc1c(C)n(CCc2ccccc2)c2ncnc(NN)c12,"inconclusive [inhibitor, partial curve, poor fit]"
20,COc1ccc(NC(=O)Cn2ncn3nc(-c4ccc(OC)cc4)cc3c2=O)cc1,inactive
21,COc1cc(C(=O)N(Cc2cc3cc(C)ccc3[nH]c2=O)CC2CCCO2)cc(OC)c1OC (stereo unspecified),inactive

# Source: PubChem BioAssay AID2546 (National Center for Advancing Translational Sciences (NCATS), 2010)
